The supplement of paper PMC11417369
The other results are listed elsewhere or left out.

The sequences below were run on PfAP2-HC AP2 domain (GST-tagged) (assay: gcPBM binding intensity (ln(normalized median fluorescence intensity)); higher = stronger DNA binding).
Procedure, shortened: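 GST-tagged P. falciparum DNA-binding domains produced in E. coli were incubated for 1 h on an Agilent 4 × 180k array of primer-extended double-stranded 36-bp intergenic genomic probes with negative controls. Binding intensity is the highest Masliner-normalised natural-log median intensity across replicate spots of either probe orientation, with bound protein detected by Alexa488 anti-GST antibody at 488 nm.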

Sequence | gcPBM binding intensity (ln)
TAGATACATACACGCACACACATATATATATATATA [CACACA_site12] | 10.5
CACTAAAATAGACACACACACACACGGATATAAATA [CACACA_site7873] | 10.8
CTTAAATTTAAGTTCACACATATTGGTCATTTATAT [CACACA_site5006] | 9.81
TTTATTTGTAACGGTTGTACTTGTATATCATTATGA [XGTACX_site4281] | 9.63
TAGTGATATAATTATGTGCACTTAATACAGGTCGAT | 9.8
GATATTTTTTTCGAAAGTACAAAAAAAAATATTTCC [XGTACX_site4389] | 9.28
AAAATTAAAAATAACACACACATATATATATTTATA [CACACA_site2776] | 10.1
ATATATATACCAAGTAGTACATTCTACAACTAATGT [XGTACX_site8653] | 9.64
ATGTATATATATATATGTACTAATTAGTAGTTTACG [XGTACX_site6272] | 10
TGTATGTATAAAAACGCATGTATGTATTTTACAATA [TGCATGCA_site767] | 9.66
TACTAAGAATTAATATAACAAAATAAAAAAAAAAAA [XGTACX_negctrl_site346] | 9.44
ATACAGATATATAATACACACATAAATGTAACATTT [CACACA_site5864] | 10.1
TTTGCCCAAAAAGGTACACACCACAATGTACATAAA [CACACA_site4599] | 9.63
TCATATATGGGTAGTATACACACTGTATATTTAGGA [CACACA_site2844] | 9.72
TTTTATTTAAATACACGTACATAATGTATATATATA [XGTACX_site7160] | 9.65
AAAAAAAAAAAACACACACACACAAATATATAAAAA [CACACA_site1171] | 10.6
TTTGAAAAAAATTAATGTACATTTGAAATGACATAT [XGTACX_site3902] | 9.38
GTATAAAAGTTATATACACACAACAGAATTACATAT [CACACA_site6212] | 9.96
ATACCTTCTTTTATGTTTAATTAATATACTTTTTAT [CACACA_negctrl_site1557] | 9.92
AATACATACATACATACACACATATAAATATATTAT [CACACA_site7650] | 10.2
TACTAATATAATAAAAGTACTTAAATAAATATATGT [XGTACX_site2220] | 9.64
GAACATTTCACACAAAAAAAAAAAAATATATATATA [TGCATGCA_negctrl_site518] | 9.54
TCTTTTTAAATATATACACACCGTGTCTACAGATAC [CACACA_site5784] | 9.88

Sequence | gcPBM binding intensity (ln)
ACATGATGTCATAAATGTACGCACACATACATAAAC [XGTACX_site1198] | 9.93
TAAATAAAAAAAAATCGTACATATATTTTATATATG [XGTACX_site3293] | 9.47
TTTTCAAAAATATACACACACATAAATATCTGTATA [CACACA_site4586] | 10
TATTTACATTTTAGTAGTACATATATGTATATATAT [XGTACX_site6839] | 9.77
TCGTAATAATAGTTGAGTACGCACTAATATGTCAAT [XGTACX_site643] | 9.85
AATTATATGCTTAATACGCACACGGGAAAAAAAAAA [CACACA_site1376] | 9.89
TGTTTGTAATTATGTATGCACTTTTTTGTATGTGTG [GTGCAC_site9668] | 9.88
ACATATCTATCGTTTTTAATTGTATATTATTATAAC [TGCATGCA_negctrl_site144] | 9.76
TCTTGTATATGTTAAAGTACACAACAATATATATAT [XGTACX_site6814] | 9.6
AGAAAAAAACAACATGCACACGCACCCACAAAAAAA [CACACA_site7908] | 10.4
TAATGAGCGCTTGTAGTGCATTATATTCAAAAATAT | 9.47
ATATTCTTGTTTAATACACACTGTAGTATTATATAT [CACACA_site4400] | 9.89
TCCCACTGTTATATTGAAAAAAAAAAAAAAAAAAAA [TGCATGCA_negctrl_site288] | 8.95
AGATAAAATATATATGCACACACATATATATTTCAT [CACACA_site9183] | 10
ATAATTATTTAATATATATATATTATTTCGAATGTT [GTGCAC_negctrl_site688] | 9.69
TAATTATTTAAAAAGAGTACATTTTTTTTTTTTTTT [XGTACX_site1060] | 9.31
TTAATAATTAATATATGTACTGATAAATAACATATA [XGTACX_site3966] | 9.44
ATTCTATATAAATATACACACATATATAAAATACAT [CACACA_site2293] | 9.88
GCGTATACTTGTAACGGTACACAGGAAATTATAGAA [XGTACX_site507] | 9.69
AAGATACACCTTTTTAGTACTTACATTTTTTTTATT [XGTACX_site1373] | 9.83
TCTTTGTTTTTTTTTTTTAAACAAAATCATCAAAGG [XGTACX_negctrl_site192] | 9.4
AATAAATATATATACACACCCATATATATATATATA [CACACA_site2595] | 9.63
TTAATGAAATATTATACACACAAAAAAATAATTTTA [CACACA_site4231] | 9.77

Sequence | gcPBM binding intensity (ln)
TAATGTTGTTTCTGAGGTACACAATTTTTTTTATTT [XGTACX_site8035] | 9.73
TACACTTTTTTTTGTACACACTAAAAAGATTAACAA [CACACA_site6037] | 9.57
TTTTTTTTTTGATGAGCACACATGTTTTTTCTTAGA [CACACA_site3171] | 9.64
AAAAAATATTTATGTTCACACATTTTATATATGATA [CACACA_site4821] | 9.63
AAATATTTTTAAAGAAGTACTTTTTAAAAATAATCT [XGTACX_site4897] | 9.27
CCAACATAGAGGGGCACACACATATATACCTAAAAA [CACACA_site5088] | 10.4
AGATTATAAAATTCTACACACATATATACCTATATA [CACACA_site5848] | 9.85
CTGTGTTTTGGTTGTACACACGCTACATTCTATATT [CACACA_site2698] | 10
AAAATAATTGTTTACACACCCATTTGTAATTTTACC [CACACA_site3614] | 9.84
ACCATACAGAATAATGCATGTTCCTTTTTATGAATA [TGCATGCA_site995] | 9.56
TATACTTGTAAATGCACACATAAGATGCGACTAATG [CACACA_site2118] | 9.73
AAAAAAATAAAGGATATACACACTAATTATATATAT [CACACA_site2812] | 9.81
TATAAAAGTAGACACACACACATATAAATATAAATA [CACACA_site6567] | 10.5
TCTATATCAACCAGTTGTACTGAATTTACTATATTT [XGTACX_site4205] | 9.8
AAAAAAAAAAATGGTTGTACTTTTTTTATTTGGTGC [XGTACX_site4498] | 9.44
GTAGACTGAAACCACACACACATATATAAATATATT [CACACA_site6433] | 10.4
ATAGACTTTTGTTTTGTTTTATTTTATTGTATTGTA [CACACA_negctrl_site618] | 9.73
ATATTATATTGGATGTTGCACTTAACAAAAGGATAT [GTGCAC_site9478] | 9.61
ATTTACATTATATTGAATATGCCATATTATATTATT [CACACA_negctrl_site811] | 9.78
TCTAACATATTTTTAATACACACTTAAAAAAGTACT [CACACA_site1366] | 9.54
AATGCTTTTCATCAAGTGCAATATGTTAATACAAAC [GTGCAC_site9619] | 9.4
AGAAAAAAAAAAAAAAAACACACGGTACATTCAAAG [CACACA_site2] | 9.88
TAATTTTCATATTTCTGTACATATATTATAAATATA [XGTACX_site3480] | 9.58

Sequence | gcPBM binding intensity (ln)
TAATATATATATATTACACACACGTATTATTAAATA [CACACA_site432] | 9.83
TGTATGTATAATTGAGTGCACAGAAAAAAAAAAGAA | 9.85
AATTAAAAAGAAAAAAGTACATATTTTTTTAAAAAA [XGTACX_site7384] | 9.47
ATATATATATATATGTGTACTAATAAGGTTAAATAA [XGTACX_site1535] | 9.85
AAATATATATTTCTTAGTACATATGTATTTTTTTTT [XGTACX_site938] | 9.74
AATAAAAAAGAATATACACACATAAATATAAAATAT [CACACA_site683] | 10
ACAAAATGTAGATATTGTACATATTGTAGATATTGT [XGTACX_site7619] | 9.82
TTTGACAAATTATTGTGTACACAATATTATTATATA [XGTACX_site8320] | 9.81
ATTTAAGATTTAATCACACACATATAGATTATAGAC [CACACA_site7383] | 10
ATGAAGAAGTGTAAATGTACATTTTATGTAGAACAA [XGTACX_site6925] | 9.82
TTTACAGAAAGTTACATACACACTAATATTTACACC [CACACA_site1009] | 9.79
TTTATATGTATTAAGTGTACACATATAATGTGTTTG [XGTACX_site6629] | 9.79
TATAAGAGGATATATACACACAAAAATATGTACAGT [CACACA_site6885] | 10
TTATTTTTTTTTTATTGTACTAGGAAAATTTCGATA [XGTACX_site702] | 9.43
TAATATTAATCCTAGTGTACATTAATTTATATGTAT [XGTACX_site3583] | 9.61
ATTATATATATATAAACACACAAATATTTTTATATA [CACACA_site5005] | 9.7
ACCTATATAAGTTATACACACAAATATAGATATATA [CACACA_site7356] | 9.87
TACAGACAGAAATGCACACACATATTTATATTTATA [CACACA_site7139] | 10.1
CTTCCTTAGGAATGTACACACATATATAATATGTTG [CACACA_site461] | 9.81
TTTTCTTACTATTGTAGTACAATATTATATTCTTTT [XGTACX_site1925] | 10
